Structures are written as SMILES. Screen size: about 5,400 compounds; about 190 (3.5%) showed an effect of 50% or more. Some of the results follow. Residues, ends and D or L forms follow the SMILES beside them.

This assay has as its system Vero-E6. The assay is described as follows: primary screen, phospholipidosis by LipidTOX staining; higher = more effect of the substance. The settings on record: 10 µM. An outline of the steps: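 Single-concentration screen at 10 μM, with DMSO 0.1 v/v % and amiodarone 10 μM as controls. Read-out is LipidTOX Red phospholipid staining, which tolerates aldehyde fixation, in Vero-E6 cells.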
Consider `NC(=O)c1cc(N2CC2)c([N+](=O)[O-])cc1[N+](=O)[O-]`, for which the result_ITMP is reported as 2.87%.
As for `Cn1cc(C2=C(c3cn(C4CCN(Cc5ccccn5)CC4)c4ccccc34)C(=O)NC2=O)c2ccccc21`, the result_ITMP is -1.87%.
In the case of `Cc1cc(C)nc(NS(=O)(=O)c2ccc(NC(=S)NC(=O)COc3ccc(Br)cc3Cl)cc2)n1`, the result_ITMP is -1.97%.
Take `CN1C(C(=O)Nc2ccccn2)=C(O)c2sc(Cl)cc2S1(=O)=O`: the result_ITMP was -1.16%.
In the case of `CC12CC3CC(C)(C1)CC(N)(C3)C2` it was 13.1%; in that of `N#Cc1ncccn1`, -5.87%; in that of `Cc1ccc(CNc2ncnc3ccc(-c4ccc(CO)o4)cc23)o1`, -5.86%.
As for `Cc1[nH]c(/C=C2\C(=O)Nc3ccc(F)cc32)c(C)c1C(=O)NCCN1CCCC1`, the result_ITMP was found to be 11.1%.
For the compound `NC[C@H]1O[C@H](OC2[C@@H](N)C[C@@H](N)[C@H](O[C@H]3O[C@H](CO)[C@@H](O)[C@H](N)[C@H]3O)[C@H]2O)[C@H](O)[C@@H](O)[C@@H]1O` (stereo partly shown), the result_ITMP is listed as -2.05%.
On to `Cn1nnnc1SCC1=C(C(=O)[O-])N2C(=O)[C@@H](NC(=O)[C@H](O)c3ccccc3)[C@H]2SC1`, for which the result_ITMP was -1.4%.
With `O=C(c1cc(C2CC2)on1)N(C1CCCCC1)C1CCCCC1`, the result_ITMP is 0.99%.
For the compound `COc1ccc(-c2cc(=O)c3c(OC)c(OC)c(OC)c(OC)c3o2)cc1`, the result_ITMP is given as -5.65%.
Regarding `CCS(=O)(=O)N1CCN(c2ccc(Nc3ncc(C(N)=O)c(NC4CC4)n3)cc2)CC1`, the result_ITMP amounted to 1.28%.
In the case of `CCN1CCN(c2ccc(C(C)(C)NC(=O)c3cc4[nH]c5ccccc5c(=O)c4cc3F)cn2)CC1`, the result_ITMP came out at 7.92%.
With `CC(C)C(=O)c1c(C(C)C)nn2ccccc12`, the result_ITMP is on record as -2.04%.
For `Nc1nc2c(sc(=O)n2[C@@H]2O[C@H](CO)[C@@H](O)[C@H]2O)c(=O)[nH]1`, the result_ITMP was -8.78%.
`CC(C)NCC(O)COc1cccc2[nH]ccc12` (stereo not shown): the result_ITMP is listed as -1.97%.
`Cn1c(=O)c2c(ncn2CCOC(=O)C(C)(C)Oc2ccc(Cl)cc2)n(C)c1=O`: the result_ITMP is reported as -1.74%.
Turning to `COP(=O)(OC)OC(c1ccc(Cl)cc1)P(=O)(OC)OC` (stereo not shown), the result_ITMP turned out to be 1.09%.
Turning to `CC(CN(C)C)CN1c2ccccc2CCc2ccccc21` (stereo not shown), the result_ITMP is listed as 34.6%.
In the case of `CCCC(O)C(CC)CO` (stereo not shown), the result_ITMP is recorded as -4.8%.
Consider `Cn1c(N2CCCCS2(=O)=O)nc(C(=O)NCc2ccc(F)cc2)c(O)c1=O`, for which the result_ITMP was -1.64%.
In the case of `O=C([O-])CCCCCCCCC(=O)[O-]` it was -5.98%; in that of `O=C(/C=C/c1ccc(O)c2c1[C@@H](C(=O)O[C@H](Cc1ccc(O)c(O)c1)C(=O)O)[C@H](c1ccc(O)c(O)c1)O2)O[C@H](Cc1ccc(O)c(O)c1)C(=O)O`, -2.38%; in that of `FC(F)(F)c1ccccc1-c1cc(C(F)(F)F)c2[nH]c(C3=NOC4(CCCCC4)C3)nc2c1`, -4.27%.
Turning to `CC(C)CC(NC(=O)C1CCCN1)C(=O)NCC(N)=O` (stereo not drawn) (H-Pro-Leu-Gly-NH2; configuration not given here), the result_ITMP is recorded as -9.44%.
Take `Cc1ccc(C)c(C(O)CNC(C)C)c1` (stereo not shown): the result_ITMP is 8.37%.
Regarding `C(#CCN1CCCC1)CN1CCCC1`, the result_ITMP is 7.18%.
Turning to `CCCCOc1ccc(C(=O)CCN2CCCCC2)cc1`, the result_ITMP is 4.72%.
Regarding `O=C(O)COc1ccc(C(=O)c2cccs2)c(Cl)c1Cl`, the result_ITMP is -7.59%.
With `CC1(C)[C@@H]2C[C@@H](O)[C@@](C)(O)[C@H]1C2`, the result_ITMP was -10.7%.
In the case of `COc1ccc(-c2cc3nccn3c(Nc3ncccc3C(N)=O)n2)cc1OC`, the result_ITMP came out at 2.2%.
Next, `COc1ccc(CCC(=O)Nc2nc3ccc(Cl)cc3s2)cc1OC`: -5.48%.
On to `CC[C@@H](C(=O)[C@@H](C)[C@@H](O)[C@H](C)[C@@H]1O[C@@H]([C@@H](CC)C(=O)O)CC[C@@H]1C)[C@H]1O[C@]2(C=C[C@@H](O)[C@]3(CC[C@@](C)([C@H]4CC[C@](O)(CC)[C@H](C)O4)O3)O2)[C@H](C)C[C@@H]1C`, for which the result_ITMP is 13%.
With `O=[N+]([O-])c1cn2c(n1)OC[C@@H](OCc1ccc(OC(F)(F)F)cc1)C2`, the result_ITMP was -1.6%.
`CCOC(=O)C(C)Oc1cccc2c(=O)n(CC(=O)Nc3ccc4c(c3)OCCO4)ccc12` (stereo not shown): the result_ITMP was found to be 3.61%.
In the case of `Cn1nnc2c(C(N)=O)ncn2c1=O`, the result_ITMP was 2.92%.
Next, `COc1ccc(CCC(=O)c2c(O)cc(O[C@@H]3O[C@H](CO)[C@@H](O)[C@H](O)[C@H]3O[C@@H]3O[C@@H](C)[C@H](O)[C@@H](O)[C@H]3O)cc2O)cc1O`: 1.22%; `COc1ccccc1OC(=O)C(C)c1ccc(CC(C)C)cc1` (stereo not shown): -2.36%.
With `NCCCCCc1cnc[nH]1`, the result_ITMP is listed as -0.34%.
Next, `Cc1ccc(C(=O)Cn2c3c(sc2=N)CCCC3)cc1`: -0.53%; `CC(C)(C)NC(=O)[C@H]1CC[C@H]2[C@@H]3CC[C@H]4NC(=O)C=C[C@]4(C)[C@H]3CC[C@]12C`: -3.73%.
For `C=CC[N+]1([C@H]2C[C@H]3[C@@H]4CC[C@H]5C[C@H](O)[C@@H](N6CCOCC6)C[C@]5(C)[C@H]4CC[C@]3(C)[C@H]2OC(C)=O)CCCC1`, the result_ITMP is -4.38%.
`Cc1ccc(C(=O)N(CCCN)[C@@H](c2oc3cc(Cl)ccc3c(=O)c2Cc2ccccc2)C(C)C)cc1`: the result_ITMP stood at 92.7%.
On to `Cc1cccc(C)c1NC(=O)CN1CCCC1=O`, for which the result_ITMP is recorded as 1.22%.
On to `CS(=O)(=O)Nc1ccc(Cc2noc(-c3ccc4[nH]cc(CCN)c4c3)n2)cc1`, for which the result_ITMP is -4.97%.
Regarding `C[C@]12C=CC(=O)C=C1CCC1C2[C@@H](O)C[C@@]2(C)C1CC[C@]2(O)C(=O)COP(=O)([O-])[O-]` (stereo partly shown), the result_ITMP is on record as -4.14%.
Next, `NC[C@H]1O[C@H](O[C@H]2C(O[C@@H]3O[C@H](CO)[C@@H](O)[C@H]3O)[C@@H](O)[C@H](N)C[C@@H]2N)[C@H](N)[C@@H](O)[C@@H]1O` (stereo partly shown): -6.92%; `OC(Cc1ccncc1)C(Cl)(Cl)Cl` (stereo not shown): 2.48%; `Nc1nc(N)c2nc(-c3ccccc3)c(N)nc2n1`: -1.84%.
In the case of `CCCNC(=O)N1N=C(c2ccc(N)cc2)c2cc3c(cc2C1C)OCO3` (stereo not shown) it was -1.71%; in that of `COc1cc(N)c(Cl)cc1C(=O)OCCN1CCCCC1`, -1.25%; in that of `Cc1cccc(Cc2c[nH]cn2)c1C`, 6.08%.
Next, `Cc1nc2ccc(Oc3ccc(F)cc3)cc2c(=O)n1C[C@H]1CCCN(C(C)C)C1`: 56.3%; `Cc1c(Nc2ncccc2C(=O)O)cccc1C(F)(F)F`: -6.08%.
As to `COc1ccc(CCO[C@@H]2CCCC[C@H]2N2CC[C@@H](O)C2)cc1OC`, the result_ITMP is -0.1%.
As to `CC(ONC(=O)c1cc(C(F)(F)F)cc(C(F)(F)F)c1)C(=O)Nc1ccc(Cl)cc1` (stereo not shown), the result_ITMP is on record as -9.45%.
With `OC[C@@H](O)CN1CCN(c2ccccc2)CC1`, the result_ITMP is listed as -4.45%.
`N#CC1(c2ccc(NC(=O)c3cccnc3NCc3ccncc3)cc2)CCCC1`: the result_ITMP is -4.31%.
For the compound `C[C@H]1[C@H](C)CC[C@]2(C(=O)O)CC[C@]3(C)C(=CC[C@@H]4[C@@]5(C)C[C@@H](O)[C@H](O)C(C)(C)[C@@H]5CC[C@]43C)[C@H]12`, the result_ITMP is listed as -2.32%.
In the case of `O=C1COc2nccc(-c3ccccc3F)c2CN1Cc1cc(C(F)(F)F)cc(C(F)(F)F)c1`, the result_ITMP turned out to be 1.84%.
`CN1CCN(C(=O)c2cc3cc(Cl)ccc3[nH]2)CC1`: the result_ITMP is recorded as 15.2%.
Next, `CCCN(CC1CC1)c1nc(C)nc(Nc2c(Cl)cc(Cl)cc2Cl)c1Cl`: 0.31%; `Cc1ccc2c(c1)c1c(n2CCc2ccc(C)nc2)CCN(C)C1`: 30.6%.
`CS[C@H]1SC[C@H]2C(=O)N(C)[C@@H](C(C)C)C(=O)OC[C@@H](NC(=O)c3cnc4ccccc4n3)C(=O)N[C@@H](C)C(=O)N(C)[C@@H]1C(=O)N(C)[C@@H](C(C)C)C(=O)OC[C@@H](NC(=O)c1cnc3ccccc3n1)C(=O)N[C@@H](C)C(=O)N2C`: the result_ITMP is given as 12.2%.
In the case of `O=C1OC2(c3cc(I)c([O-])c(I)c3Oc3c2cc(I)c([O-])c3I)c2c(Cl)c(Cl)c(Cl)c(Cl)c21` it was -9.57%.
Turning to `O=C1NC(c2cccc([N+](=O)[O-])c2)=CCN1c1ccccc1O`, the result_ITMP is given as -5.5%.
Turning to `O=C(O)COc1cccc(CN(Cc2ccc(-n3cccn3)cc2)S(=O)(=O)c2cccnc2)c1`, the result_ITMP is reported as -0.8%.
Turning to `N#CC(C#N)=Cc1ccc(O)c(O)c1`, the result_ITMP is recorded as -0.51%.
As for `C[C@@]12C[C@@]3(O)O[C@@H](O1)[C@]1(COC(=O)c4ccccc4)[C@H]3C[C@@]12O[C@@H]1O[C@H](CO)[C@@H](O)[C@H](O)[C@H]1O`, the result_ITMP is on record as -5.49%.
For `FC(F)(F)Oc1ccc2nc(-c3ccc(OCCOCCOc4ccc(-c5nc6ccc(OC(F)(F)F)cc6[nH]5)nc4)cn3)[nH]c2c1`, the result_ITMP is reported as -1.49%.
In the case of `CC(C)=CCC/C(C)=C/CC/C(C)=C/CC[C@]1(C)CCc2cc(O)cc(C)c2O1` it was -0.24%; in that of `CCCNCCc1ccc(NS(=O)(=O)c2ccc(OC(F)(F)F)cc2)cc1`, 33%.
Consider `CN1C(=O)N(C)C2C1N(C)C(=O)N2C` (stereo not shown), for which the result_ITMP is reported as -9.95%.
As for `CN(Cc1cc(Br)cc(Br)c1N)C1CCCCC1`, the result_ITMP is reported as -3.05%.
On to `C[C@H](CS)C(=O)N1CCC[C@H]1C(=O)O`, for which the result_ITMP is -0.88%.
Regarding `CCOC(=O)c1c2c3c(cccc3[nH]c1=O)C(=O)c1ccccc1-2`, the result_ITMP is listed as -1.87%.
As to `CC(C)n1nccc1-c1ncccc1COc1cccc(O)c1C=O`, the result_ITMP was found to be 0.56%.
Next, `CC1(C)O[C@@H]2C[C@H]3[C@@H]4C[C@H](F)C5=CC(=O)C=C[C@]5(C)[C@H]4[C@@H](O)C[C@]3(C)[C@]2(C(=O)CO)O1`: -2.41%; `CC[C@H]1CN2CCc3cc(OC)c(OC)cc3C2C[C@@H]1CC1NCCc2cc(OC)c(OC)cc21` (stereo partly shown): 7.6%.
With `NCCc1ccc(O)c(O)c1`, the result_ITMP was -2.47%.
As to `Nc1nc(=O)c2c([nH]1)NC[C@H](CNc1ccc(C(=O)N[C@@H](CCC(=O)[O-])C(=O)[O-])cc1)N2C=O`, the result_ITMP was -7.53%.

The values are drawn from PMC13083723 (Patterns, 2026).
